# Source: the supplement of paper PMC8728848
# The other results are listed elsewhere or left out.
# B1: Gal 4 (Mus musculus), P56470 (protein)
# chain: MAYVPAPGYQPTYNPTLPYYQPIPGGLNVGMSVYIQGVASEHMKRFFVNFVVGQDPGSDVAFHFNPRFDGWDKVVFNTLQGGKWGSEERKRSMPFKKGAAFELVFIVLAEHYKVVVNGNPFYEYGHRLPLQMVTHLQVDGDLQLQSINFIGGQPLRPQGPPMMPPYPGPGHCHQQLNSLPTMEGPPTFNPPVPYFGRLQGGLTARRTIIIKGYVPPTGKSFAINFKVGSSGDIALHINPRMGNGTVVRNSLLNGSWGSEEKKITHNPFGPGQFFDLSIRCGLDRFKVYANGQHLFDFAHRLSAFQRVDTLEIQGDVTLSYVQI
# Columns and labels:
# Assay in all cases: glycan array binding signal (z-score within array); higher = stronger binding
# Conditions in all cases: glycan notation: IUPAC condensed, linker removed
# [1] = biological target: Neu5Ac(a2-8)Neu5Gc(a2-3)Gal(b1-4)GlcNAc
# Outline: (§1)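 From the Consortium for Functional Glycomics database, 3228 arrays were curated, keeping only those whose protein sequence was available. Binding is given as a within-array Z-score averaged across arrays sharing a protein sequence and across linkers. Negative Z-scores can be read as non-binding.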
# [2] = biological target: Neu5Ac(b2-6)Gal(b1-4)GlcNAc
# Outline: as §1
# [3] = biological target: Neu5Ac(b2-6)GalNAc
# Outline: as §1
# [4] = biological target: Neu5Ac9Ac(a2-3)Gal(b1-3)GlcNAc
# Outline: as §1
# [5] = biological target: Neu5Ac9Ac(a2-3)Gal(b1-4)GlcNAc
# Outline: as §1
# [6] = biological target: Neu5Ac9Ac(a2-6)Gal(b1-4)GlcNAc
# Outline: as §1
# [7] = biological target: Neu5Gc(a2-3)Gal(b1-3)GlcNAc
# Outline: as §1
# [8] = biological target: Neu5Gc(a2-3)Gal(b1-3)[Fuc(a1-4)]GlcNAc
# Outline: as §1
# [9] = biological target: Neu5Gc(a2-3)Gal(b1-4)Glc
# Outline: as §1
# [10] = biological target: Neu5Gc(a2-3)Gal(b1-4)GlcNAc
# Outline: as §1
# [11] = biological target: Neu5Gc(a2-3)Gal(b1-4)GlcNAc(b1-3)Gal(b1-4)GlcNAc(b1-2)Man(a1-3)[Neu5Gc(a2-3)Gal(b1-4)GlcNAc(b1-3)Gal(b1-4)GlcNAc(b1-2)Man(a1-6)]Man(b1-4)GlcNAc(b1-4)GlcNAc
# Outline: as §1
# [12] = biological target: Neu5Gc(a2-3)Gal(b1-4)[Fuc(a1-3)]GlcNAc
# Outline: as §1
# [13] = biological target: Neu5Gc(a2-6)Gal(b1-4)GlcNAc
# Outline: as §1
# [14] = biological target: Neu5Gc(a2-6)GalNAc
# Outline: as §1
# [15] = biological target: Neu5Gc(a2-8)Neu5Ac(a2-3)Gal(b1-4)GlcNAc
# Outline: as §1
# [16] = biological target: Neu5Gc(a2-8)Neu5Gc(a2-3)Gal(b1-4)GlcNAc
# Outline: as §1
# [17] = biological target: Neu5Gc(a2-8)Neu5Gc(a2-3)Gal(b1-4)GlcNAc(b1-3)Gal(b1-4)GlcNAc
# Outline: as §1
# [18] = biological target: Neu5Gc(a2-8)Neu5Gc(a2-6)Gal(b1-4)GlcNAc
# Outline: as §1
# [19] = biological target: Neu5Gc(b2-6)Gal(b1-4)GlcNAc
# Outline: as §1
binder,measurement,setting,value
B1,glycan array binding signal (z-score),[1],-0.228
same,glycan array binding signal (z-score),[2],-0.233
same,glycan array binding signal (z-score),[3],-0.239
same,glycan array binding signal (z-score),[4],-0.199
same,glycan array binding signal (z-score),[5],-0.226
same,glycan array binding signal (z-score),[6],-0.232
same,glycan array binding signal (z-score),[7],-0.235
same,glycan array binding signal (z-score),[8],-0.249
same,glycan array binding signal (z-score),[9],-0.222
same,glycan array binding signal (z-score),[10],-0.232
same,glycan array binding signal (z-score),[11],-0.262
same,glycan array binding signal (z-score),[12],-0.253
same,glycan array binding signal (z-score),[13],-0.231
same,glycan array binding signal (z-score),[14],-0.202
same,glycan array binding signal (z-score),[15],-0.253
same,glycan array binding signal (z-score),[16],-0.315
same,glycan array binding signal (z-score),[17],-0.309
same,glycan array binding signal (z-score),[18],-0.289
same,glycan array binding signal (z-score),[19],-0.22
